From PubChem BioAssay AID1745853 (National Center for Advancing Translational Sciences (NCATS), 2022)
Values joined by “and” are separate entries in the source; they are usually repeats but may differ in a detail not shown here. Identical values can stand only once. The list shows a part of the results. Shown are side measurements of this screen, not its main read-out; they come without a call.

Key:
Test in all cases: Primary Screen for Target Class Profiling of Small Molecule Inhibitors of Methyltransferases
[1] = target: Glycine N-methyltransferase (Homo sapiens) (UniProt Q14749); settings: purified enzyme, MTase-Glo SAH luminescence; measured here: GNMT inhibition; at 40 µM; stronger effect = lower value
Method in brief: (§1)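 Each enzyme was assayed with SAM and its substrate. SAH formation detected by MTase-Glo luminescence; single-point 40 uM screen[…].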

[2] = target: Guanidinoacetate N-methyltransferase (Homo sapiens) (UniProt Q14353); settings: purified enzyme, MTase-Glo SAH luminescence; measured here: GAMT inhibition; at 40 µM; stronger effect = lower value
Method in brief: as §1

[3] = target: Histamine N-methyltransferase (Homo sapiens) (UniProt P50135); settings: purified enzyme, MTase-Glo SAH luminescence; measured here: HNMT inhibition; at 40 µM; stronger effect = lower value
Method in brief: as §1

[4] = target: Nicotinamide N-methyltransferase (Homo sapiens) (UniProt P40261); settings: purified enzyme, MTase-Glo SAH luminescence; measured here: NNMT inhibition; at 40 µM; stronger effect = lower value
Method in brief: as §1

[5] = target: Phenylethanolamine N-methyltransferase (Homo sapiens) (UniProt P11086); settings: purified enzyme, MTase-Glo SAH luminescence; measured here: PNMT inhibition; at 40 µM; stronger effect = lower value
Method in brief: as §1
% is set by controls: 0 for no effect and ±100 for the full control effect.

Row | SMILES | activity change, negative = inhibition [1] | activity change, negative = inhibition [2] | activity change, negative = inhibition [3] | activity change, negative = inhibition [4] | activity change, negative = inhibition [5]
1 | CC(C)CCn1c(=O)c2ccccc2n2c(SCC(=O)Nc3ccc(C(C)C)cc3)nnc12 | 2.62% | 0.393% | 10.7% | -8.24% | 5.14%
2 | O=C(c1ccoc1)N1CC[C@@H](c2ccc3ccccc3c2)[C@H](O)C1 | -5% | -2.06% | 0.314% | -10.3% | -4.32%
3 | Cn1c(=O)n(C)c2cc(NS(=O)(=O)c3ccc(N4CCCC4=O)cc3)ccc21 | -1.97% | -4.29% | -13.1% | -6.97% | -17.6%
4 | C[C@H](NC(=O)CCc1nc2ccccc2c(=O)[nH]1)c1ccccc1 | -2.34% and 1.69% | -4.36% and -7.12% | 0.186% and 10.3% | -17.6% and 9.31% and -18.1% | -4.69% and 16.3% and -3.3%
5 | CC1(C(=O)NC2CCCCC2)Cn2nc(-c3ccco3)cc2C(=O)N1CCc1ccc(Cl)cc1 (stereo not given) | -0.215% | 3.41% | 2.72% | -4.98% | 2.15%
6 | CC[C@H]1OC(=O)[C@H](C)[C@@H](OC2C[C@@](C)(OC)[C@@H](O)[C@H](C)O2)[C@H](C)[C@@H](OC2O[C@H](C)C[C@H](NC)[C@H]2O)[C@](C)(O)C[C@@H](C)CN(C)[C@H](C)[C@@H](O)[C@]1(C)O (stereo not given in full) | -2.34% | -3.3% | 0.608% | -13.8% | -5.13%
7 | CC(=O)Oc1c(-c2ccc(NC(=O)c3ccco3)cc2)c(-c2cccc(F)c2)nn1-c1ccc(C)cc1 | -7.31% | -2.33% | -0.365% | -6.42% | -2.47%
8 | CCCS(=O)(=O)N1CCC(N2C(=O)[C@H](OCCOC)[C@@H]2c2ccncc2)CC1 | -2.14% | -3.29% | -1.98% | -5.25% | 2.1%
9 | CC1C(OC(=O)c2ccccc2)C(O)C2C(C(=O)O)=COC(OC3OC(CO)C(O)C(O)C3O)C12 (stereo not given) | 5.44% | 2.96% | 9.7% | -7.51% | -2.55%
10 | O=C(O)CC1CCC(c2ccc(NC(=O)c3nnc(Nc4ccc(F)c(F)c4)o3)cc2)CC1 (stereo not given) | -13.4% | 6.23% | 9.6% | -13.6% | 2.21%
11 | Cc1cccc(OCCc2noc(C3CCN(C(=O)NC4CCCCC4)C3)n2)c1 (stereo not given) | -2.27% | 0.619% | -0.648% | -8.44% | 4.46%
12 | C=CC1C(O[C@@H]2O[C@H](CO)[C@@H](O)[C@H](O)[C@H]2O)OC=C(C(=O)OC)C1Cc1nccc2c1[nH]c1ccccc12 (stereo not given in full) | 1.68% | 2.69% | 11.8% | -8.27% | 6.08%
13 | O=C1CCC2(CCN1)CCN(S(=O)(=O)c1cccnc1)CC2 | 0.516% | 1.28% | 2.66% | 0.155% | 0.769%
14 | COc1ccc(CNc2nc(N(CCO)CCO)nc3c2ncn3C(C)C)cc1 | -12.1% | -6.84% | 1.25% | -21.4% | -2.41%
15 | CC(C)c1cc2n(n1)CC(C)(C(=O)NC1CCCCCC1)N(Cc1cccc(Cl)c1)C2=O (stereo not given) | 4.54% | 1.87% | 7.88% | 3.62% | 2.66%
16 | CCNC(=O)C(CC)n1ccc2cc(S(=O)(=O)N3CCCCC3)ccc21 (stereo not given) | 5.58% | 2.67% | 1.43% | 7.61% | 4.06%
17 | O=C(NC[C@H]1OC[C@@H](NCc2ccccc2O)[C@@H]1O)c1ccc(F)cc1 | -1.1% | -1.73% | 1.08% | -2.82% | 5.18%
18 | O=C(OCC12OC1C=CC(OC(=O)c1ccccc1)C2O)c1ccccc1 (stereo not given) | -6.28% | -4.31% | 4.04% | -15.6% | -6.96%
19 | Cc1ccc(NC(=O)Cn2c(=O)oc3cc(S(=O)(=O)N4CC(C)CC(C)C4)ccc32)cc1C (stereo not given) | -5.61% | -0.591% | -3.52% | -6.88% | -24.4%
20 | CC(C)CN(Cc1cccnc1)C1CN(S(=O)(=O)Cc2ccccc2F)C1 | -2.72% | 1.41% | 2.48% | -5.56% | -1.45%
21 | CC(C)c1ccccc1OC(=O)NCCc1ccc2ccccc2c1 | -0.408% | -14.1% | 4.36% | -17.3% | -5.08%
22 | O=C(CCc1nnc2n(Cc3ccc(Cl)cc3)c(=O)c3ccccc3n12)N1CCC(N2CCCCC2)CC1 | -16.9% | 2.04% | -77.3% | -3.04% | -9.14%
23 | O=C1NC(=NC2CCCCC2)C2(CCN(CC3CCCCC3)CC2)N1c1cc(F)cc(F)c1 | -2.53% | -1.73% | 0.703% | -2.57% | -9.21%
24 | CC1=CC(=O)[C@@]2(C(C)C)C[C@@H]12 | -14.5% | -32.9% | -17.3% | -60.4% | -21.7%
25 | Cc1ccc(NC(=O)Cn2nc3n(CCC(C)C)c(=O)c4ccccc4n3c2=O)c(C)c1 | 6.21% | 5.37% | 9.6% | 4.32% | -1.88%
26 | COC(=O)c1ncn2c1C(=O)N(c1ccc(OC)c(OC)c1)C(C)(C(=O)NCc1ccccc1)C2 (stereo not given) | 2.48% | 0% | 8.52% | 2.79% | 2.53%
